# Source: the supplement of paper PMC8728848
# This is one part of the list.
# B1: ConA (Canavalia ensiformis), P02866 (protein)
# chain: MAISKKSSLFLPIFTFITMFLMVVNKVSSSTHETNALHFMFNQFSKDQKDLILQGDATTGTDGNLELTRVSSNGSPQGSSVGRALFYAPVHIWESSAVVASFEATFTFLIKSPDSHPADGIAFFISNIDSSIPSGSTGRLLGLFPDANVIRNSTTIDFNAAYNADTIVAVELDTYPNTDIGDPSYPHIGIDIKSVRSKKTAKWNMQNGKVGTAHIIYNSVDKRLSAVVSYPNADSATVSYDVDLDNVLPEWVRVGLSASTGLYKETNTILSWSFTSKLKSNEIPDIATVV
# Experiments:
# Test in all cases: glycan array binding signal (z-score within array); higher = stronger binding
# Conditions in all cases: glycan notation: IUPAC condensed, linker removed
# [1] = target: Fuc(a1-2)Gal6S(b1-4)Glc6S
# Summary of the method: (§1)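 From the Consortium for Functional Glycomics database, 3228 arrays were curated, keeping only those whose protein sequence was available. Binding is given as a within-array Z-score averaged across arrays sharing a protein sequence and across linkers. Negative Z-scores can be read as non-binding.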
# [2] = target: Fuc(a1-2)Gal6S(b1-4)GlcNAc
# Summary of the method: as §1
# [3] = target: Fuc(a1-2)GlcNAc
# Summary of the method: as §1
# [4] = target: Fuc(a1-2)[Gal(a1-3)]Gal
# Summary of the method: as §1
# [5] = target: Fuc(a1-2)[Gal(a1-3)]Gal(b1-3)GalNAc
# Summary of the method: as §1
# [6] = target: Fuc(a1-2)[Gal(a1-3)]Gal(b1-3)GlcNAc
# Summary of the method: as §1
# [7] = target: Fuc(a1-2)[Gal(a1-3)]Gal(b1-3)GlcNAc(b1-2)Man(a1-3)[Fuc(a1-2)[Gal(a1-3)]Gal(b1-3)GlcNAc(b1-2)Man(a1-6)]Man(b1-4)GlcNAc(b1-4)GlcNAc
# Summary of the method: as §1
# [8] = target: Fuc(a1-2)[Gal(a1-3)]Gal(b1-3)GlcNAc(b1-2)Man(a1-3)[Fuc(a1-2)[Gal(a1-3)]Gal(b1-3)GlcNAc(b1-2)Man(a1-6)]Man(b1-4)GlcNAc(b1-4)[Fuc(a1-6)]GlcNAc
# Summary of the method: as §1
# [9] = target: Fuc(a1-2)[Gal(a1-3)]Gal(b1-3)GlcNAc(b1-3)GalNAc
# Summary of the method: as §1
# [10] = target: Fuc(a1-2)[Gal(a1-3)]Gal(b1-4)Glc
# Summary of the method: as §1
# [11] = target: Fuc(a1-2)[Gal(a1-3)]Gal(b1-4)GlcNAc
# Summary of the method: as §1
# [12] = target: Fuc(a1-2)[Gal(a1-3)]Gal(b1-4)GlcNAc(b1-2)Man(a1-3)[Fuc(a1-2)[Gal(a1-3)]Gal(b1-4)GlcNAc(b1-2)Man(a1-6)]Man(b1-4)GlcNAc(b1-4)GlcNAc
# Summary of the method: as §1
# [13] = target: Fuc(a1-2)[Gal(a1-3)]Gal(b1-4)GlcNAc(b1-2)Man(a1-3)[Fuc(a1-2)[Gal(a1-3)]Gal(b1-4)GlcNAc(b1-2)Man(a1-6)]Man(b1-4)GlcNAc(b1-4)[Fuc(a1-6)]GlcNAc
# Summary of the method: as §1
# [14] = target: Fuc(a1-2)[Gal(a1-3)]Gal(b1-4)GlcNAc(b1-3)GalNAc
# Summary of the method: as §1
# [15] = target: Fuc(a1-2)[Gal(a1-3)]Gal(b1-4)[Fuc(a1-3)]Glc
# Summary of the method: as §1
# [16] = target: Fuc(a1-2)[Gal(a1-3)]Gal(b1-4)[Fuc(a1-3)]GlcNAc
# Summary of the method: as §1
# [17] = target: Fuc(a1-2)[Gal(a1-3)]Gal(b1-4)[Fuc(a1-3)]GlcNAc(b1-3)GalNAc
# Summary of the method: as §1
# [18] = target: Fuc(a1-2)[Gal(a1-4)]Gal(b1-4)GlcNAc
# Summary of the method: as §1
# [19] = target: Fuc(a1-2)[GalNAc(a1-3)]Gal
# Summary of the method: as §1
# [20] = target: Fuc(a1-2)[GalNAc(a1-3)]Gal(b1-3)GalNAc(a1-3)[Fuc(a1-2)]Gal(b1-4)GlcNAc
# Summary of the method: as §1
# [21] = target: Fuc(a1-2)[GalNAc(a1-3)]Gal(b1-3)GlcNAc
# Summary of the method: as §1
# [22] = target: Fuc(a1-2)[GalNAc(a1-3)]Gal(b1-3)GlcNAc(b1-2)Man(a1-3)[Fuc(a1-2)[GalNAc(a1-3)]Gal(b1-3)GlcNAc(b1-2)Man(a1-6)]Man(b1-4)GlcNAc(b1-4)GlcNAc
# Summary of the method: as §1
# [23] = target: Fuc(a1-2)[GalNAc(a1-3)]Gal(b1-3)GlcNAc(b1-2)Man(a1-3)[Fuc(a1-2)[GalNAc(a1-3)]Gal(b1-3)GlcNAc(b1-2)Man(a1-6)]Man(b1-4)GlcNAc(b1-4)[Fuc(a1-6)]GlcNAc
# Summary of the method: as §1
# [24] = target: Fuc(a1-2)[GalNAc(a1-3)]Gal(b1-3)GlcNAc(b1-3)GalNAc
# Summary of the method: as §1
# [25] = target: Fuc(a1-2)[GalNAc(a1-3)]Gal(b1-4)Glc
# Summary of the method: as §1
# [26] = target: Fuc(a1-2)[GalNAc(a1-3)]Gal(b1-4)GlcNAc
# Summary of the method: as §1
# [27] = target: Fuc(a1-2)[GalNAc(a1-3)]Gal(b1-4)GlcNAc(b1-2)Man(a1-3)[Fuc(a1-2)[GalNAc(a1-3)]Gal(b1-4)GlcNAc(b1-2)Man(a1-6)]Man(b1-4)GlcNAc(b1-4)GlcNAc
# Summary of the method: as §1
# [28] = target: Fuc(a1-2)[GalNAc(a1-3)]Gal(b1-4)GlcNAc(b1-2)Man(a1-3)[Fuc(a1-2)[GalNAc(a1-3)]Gal(b1-4)GlcNAc(b1-2)Man(a1-6)]Man(b1-4)GlcNAc(b1-4)[Fuc(a1-6)]GlcNAc
# Summary of the method: as §1
# [29] = target: Fuc(a1-2)[GalNAc(a1-3)]Gal(b1-4)GlcNAc(b1-3)Gal(b1-4)GlcNAc
# Summary of the method: as §1
# [30] = target: Fuc(a1-2)[GalNAc(a1-3)]Gal(b1-4)GlcNAc(b1-3)Gal(b1-4)GlcNAc(b1-3)Gal(b1-4)GlcNAc
# Summary of the method: as §1
# [31] = target: Fuc(a1-2)[GalNAc(a1-3)]Gal(b1-4)GlcNAc(b1-3)GalNAc
# Summary of the method: as §1
# [32] = target: Fuc(a1-2)[GalNAc(a1-3)]Gal(b1-4)[Fuc(a1-3)]GlcNAc
# Summary of the method: as §1
# [33] = target: Fuc(a1-2)[GalNAc(a1-3)]Gal(b1-4)[Fuc(a1-3)]GlcNAc(b1-3)GalNAc
# Summary of the method: as §1
# [34] = target: Fuc(a1-2)[GalNAc(a1-4)]Gal(b1-4)GlcNAc
# Summary of the method: as §1
# [35] = target: Fuc(a1-2)[GalNAc(b1-3)]Gal
# Summary of the method: as §1
# [36] = target: Fuc(a1-3)GlcNAc
# Summary of the method: as §1
# [37] = target: Fuc(a1-3)[Gal(b1-4)]Glc6S
# Summary of the method: as §1
# [38] = target: Fuc(a1-3)[Gal(b1-4)]GlcNAc
# Summary of the method: as §1
binder,measurement,setting,value
B1,glycan array binding signal (z-score),[1],-0.251
same,glycan array binding signal (z-score),[2],-0.247
same,glycan array binding signal (z-score),[3],-0.125
same,glycan array binding signal (z-score),[4],-0.265
same,glycan array binding signal (z-score),[5],-0.193
same,glycan array binding signal (z-score),[6],-0.213
same,glycan array binding signal (z-score),[7],-0.079
same,glycan array binding signal (z-score),[8],-0.094
same,glycan array binding signal (z-score),[9],-0.237
same,glycan array binding signal (z-score),[10],-0.278
same,glycan array binding signal (z-score),[11],-0.276
same,glycan array binding signal (z-score),[12],-0.183
same,glycan array binding signal (z-score),[13],-0.07
same,glycan array binding signal (z-score),[14],-0.284
same,glycan array binding signal (z-score),[15],-0.161
same,glycan array binding signal (z-score),[16],-0.17
same,glycan array binding signal (z-score),[17],-0.205
same,glycan array binding signal (z-score),[18],-0.296
same,glycan array binding signal (z-score),[19],-0.17
same,glycan array binding signal (z-score),[20],-0.245
same,glycan array binding signal (z-score),[21],-0.279
same,glycan array binding signal (z-score),[22],-0.168
same,glycan array binding signal (z-score),[23],-0.061
same,glycan array binding signal (z-score),[24],-0.093
same,glycan array binding signal (z-score),[25],-0.296
same,glycan array binding signal (z-score),[26],-0.277
same,glycan array binding signal (z-score),[27],-0.206
same,glycan array binding signal (z-score),[28],-0.083
same,glycan array binding signal (z-score),[29],-0.196
same,glycan array binding signal (z-score),[30],0.306
same,glycan array binding signal (z-score),[31],-0.257
same,glycan array binding signal (z-score),[32],-0.163
same,glycan array binding signal (z-score),[33],-0.039
same,glycan array binding signal (z-score),[34],-0.24
same,glycan array binding signal (z-score),[35],-0.296
same,glycan array binding signal (z-score),[36],-0.268
same,glycan array binding signal (z-score),[37],-0.245
same,glycan array binding signal (z-score),[38],-0.281
